Measurements as given in the supplement of paper PMC3334620.
In all, about 33,000 sequences were measured (“E-score (-0.5 to 0.5)”: median about -0.016, highest 2% from about 0.31 on). The list shows a part of the results.

The sequences below were run against Cst6 (UniProt P40535) (assay: PBM E-score (8-mer binding enrichment) (E-score (-0.5 to 0.5)); higher = stronger / more preferred TF binding; most listed sequences are background and not binding sites). Settings: protein concentration: 200 nM; construct: GST-DNA-binding domain.
Method: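 Universal 'all 10-mer' protein binding microarrays (Agilent AMADID 015681) probed with GST-tagged S. cerevisiae TFs (full-length or DBD) made by in vitro transcription/translation (PURExpress), about 100-200 nM. Bound TF was detected with fluorescent anti-GST. Each ungapped 8-mer (which stands for itself and its reverse complement) is scored by the PBM enrichment score (E-score), a modified Wilcoxon-Mann-Whitney statistic from -0.5 to +0.5, computed with the Universal PBM Analysis Suite. Scale: above 0.35 generally sequence-specific binding.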

Sequence	PBM E-score
AGCTTTAA	0.127
GAATCGTA	-0.0222
AGATTACA	0.251
GCTAAACC	-0.147
CCTCAGCC	-0.137
GGTCAACC	-0.0743
CAACCGTG	-0.0377
CCCACATC	-0.177
ACGAGTAC	-0.00835
AGAGGAGG	-0.341
ATACGCCA	0.0689
CACGCCCA	-0.21
AAGGAATA	0.0503
CGGCGGGA	0.0517
CCAAAGAG	-0.0609
TCGTATAA	0.145
AAATAACC	0.0821
AATTTTGG	0.163
GAGGTGAA	-0.0049
CGTCGAAA	0.211
GCTTCAAC	-0.0993
GGCCGAAC	-0.258
CCCTCCGG	-0.443
GCATGTCA	0.287
CGCCAGTA	-0.0657

Sequence	PBM E-score
GATCGTAC	-0.335
AAGGTCCG	-0.257
GATTCGCC	0.0182
CAGTTTCC	-0.165
TGGCCAAA	0.0412
ACCACCTC	-0.109
CCCTACAA	0.00415
GGAGGGTA	-0.097
AGTCGTCA	0.268
GGCAAAAA	0.23
AAAACGCG	0.205
ACATCTCT	0.0423
AACATTTG	-0.0279
CTAGCTTC	-0.183
GCCTGACA	-0.104
CTATCTAC	-0.0129
TCTGTGCA	0.105
TACCAACA	0.113
TGGAGAAA	-0.00088
CCAATCTA	-0.011
AATCCCGC	-0.0309
AGTAAGTC	-0.235
CTGTAAAC	0.0525
TAGAGGGA	-0.0897
CGTATACC	-0.2

Sequence	PBM E-score
CTTCCCTC	-0.293
ACCTCCCT	-0.312
ACGCCACA	0.178
CGGCATCC	0.199
AAGCAGGT	0.0005
ACCGGAGC	-0.183
CGAATACG	0.242
CAACCTCG	0.0645
ATGGGAAG	-0.153
AACTTGTG	0.0771
AGAATCTA	0.0654
CGTCCAAA	0.197
AAACGATA	0.177
ATTTTAGG	0.212
ATTAATTG	0.253
ACGTTCCC	-0.267
CCAATAGC	-0.261
CTGGACAG	-0.281
CACACCTC	-0.12
ACAGCATC	0.0152
AATGAGGA	-0.196
CTTGCAAG	0.0976
ATAGCGTA	0.18
ATATGTTA	0.128
TACCCTGA	-0.0923

Sequence	PBM E-score
CTGACGAC	0.216
AGACGCGA	-0.0142
CTTGCGTA	0.216
ACATCCCG	-0.0915
ACACGCCG	0.166
GTGCCCGA	-0.168
AAGTACTG	-0.0496
AAACACAA	0.0849
AGCAAGAC	0.064
CGGAGGAC	-0.313
AACGGGTA	0.084
AAAAGTAG	0.185
CACCGACA	0.131
AGAGTGAG	0.076
ACTTGTCA	0.0443
ATGTGTAG	0.0753
CTCGTGTA	0.0233
GCGATCGC	0.039
GGAGGTAA	-0.0533
AGAGCTCA	-0.192
ACCTCATA	0.247
AGTGCAAT	-0.0018
CCTCGCGC	0.103
ATACCTGA	0.208
CTCATAAA	0.06

Sequence	PBM E-score
CCTAGACA	-0.222
CGATTTGC	-0.132
ATCTAGAG	-0.0462
ATCTATGA	0.164
AGGCCCCG	-0.256
CAGGTGAC	0.258
CGGTCCTC	-0.133
CGAAACTA	0.0426
GGTCATGA	0.239
CGCGACGC	0.0713
TCAAGCGA	-0.00748
CCGGCGCA	-0.107
CAAGACAC	0.128
CGTACTCA	0.1
GGGACAGA	-0.344
GATTACAA	0.22
ATTGGTCG	0.069
CGCTGTGA	0.089
AGCCGGTA	-0.163
CCCCCCAG	-0.451
GGCTTGAC	-0.0856
ACAATGAA	0.129
ACGGAATA	0.0756
ACGCCGGA	-0.191
CCCGTCGC	-0.149

Sequence	PBM E-score
AAACACCC	-0.0869
ATTCACAG	-0.0526
ATGAGAGG	-0.17
AGCCCGTA	-0.174
ACGAAGAA	0.243
AGAGCTTG	-0.126
GTACGATA	0.106
AACGTTTA	0.0545
GCCACTCC	-0.0261
CCAACTGA	-0.00904
AAACATGT	0.24
CGTCATAA	0.476
AAATCCAC	0.0281
GTTGCACA	-0.0605
CAAAATTA	0.233
CCCCAAGG	-0.26
CTGCTTCA	-0.0807
CGAATGAA	0.0688
CTTTTGCC	0.095
GGACAGCA	-0.0265
GAGACCCC	-0.279
ATTTCCTG	0.101
ATATACTG	0.152
ATTTTTTC	0.265
AGGCAAGC	-0.139

Sequence	PBM E-score
CCAAGTAG	-0.198
CCTGGTCG	-0.266
CGAGATTC	-0.0273
CATGATAC	0.251
CGTCCCTA	0.026
CTGGCTGC	-0.323
CCCGTCGA	-0.0608
GATAAAAA	0.282
AAAGTGTC	-0.117
ACTATGGA	-0.147
AGACTTTG	-0.00622
AGGGGGGG	-0.42
ACTGCTAG	-0.254
AATTTTGA	0.279
GATCAGTA	0.197
CCAAGGAA	-0.249
CGAGAACC	-0.0737
CCCCTAGG	-0.319
GAGAGCAC	-0.133
GACAGTAC	-0.067
TATAGTCA	0.188
GTATGGTA	-0.00272
